61 compounds from PubChem BioAssay AID1508642 (National Center for Advancing Translational Sciences (NCATS), 2021) can be followed below.

In all, about 43,000 compounds went through this assay and about 200 (0.47%) were called active. Roughly 12% stayed inconclusive and do not appear here. Calls come from the whole dose curve; as a rule, active = well fitted cell-killing curve with a large enough effect; inconclusive = small, poorly fitted or top-dose-only effect, or effect the other way; inactive = flat fitted curve, though single readings scatter. This is one part of the list.
% is set by controls: 0 for no effect and ±100 for the full control effect.

The test is described as follows: Cell viability qHTS assay in S16 Pmp22-F2sN cells. Note: nearly all actives have a fitted effect of over 65% in size. As to conditions: S16 Pmp22-F2sN Schwann cells (luciferase reporters placed in the Pmp22 gene) viability, CellTiter-Glo, 24 h; series mostly up to 57.5 µM; activity change, negative = cytotoxicity: at the top concentration. An outline of the steps: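 Rat S16 Schwann reporter line, 24 h treatment with library compounds delivered at 23 nL per well. Cell viability by CellTiter-Glo luminescence.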
For orientation: Quantitative high-throughput screening tests each substance at several concentrations.
Consider `Cc1cc(C)nc(NS(=O)(=O)c2ccc(NC(=O)c3ccccc3O)cc2)n1`, for which the “activity change, negative = cytotoxicity” value is inactive: -16.9%.
For `COc1ccc2c(Sc3ccccc3)c(C(=O)NCC(C)c3ccccc3)[nH]c2c1` (stereo unspecified) the value was inactive: -8.13%; for `Cc1cc(C)cc(-n2c(SCC(=O)N3CCCC3)nc3c([nH]c4ccccc43)c2=O)c1`, inactive: -2.9%.
Then `O=C(Cn1nc(-c2ccccc2)c2cnc3ccccc3c21)Nc1ccccc1`, with inactive: 14.2%.
Then `Cc1ccc(C)c(NC(=O)CN2C(=O)C3(SCC(=O)N3c3ccc(C)c(C)c3)c3ccccc32)c1` (stereo unspecified), with inactive: -8.91%; and `Cc1ccc(Cn2nnc3sc4c(c3c2=O)CCC(C)C4)cc1` (stereo unspecified), with inactive: -2.38%; and `CCC(=O)N1CCc2cc(CNS(=O)(=O)c3c(C)cc(C)cc3C)ccc21`, with inactive: -4.73%.
Consider `CC1=C(C(=O)Nc2cccnc2)C(c2ccccc2)n2nc(SCc3ccccc3)nc2N1` (stereo unspecified), for which the “activity change, negative = cytotoxicity” value was inactive: 19.9%.
Turning to `COC(=O)c1ccccc1NC(=O)c1cc(-c2ccc(Cl)cc2)on1`, the “activity change, negative = cytotoxicity” value is inactive: 15.7%.
In the case of `CCCCOc1ccc(C(=O)Nc2ccc(S(=O)(=O)Nc3nc(C)cc(C)n3)cc2)cc1`, the “activity change, negative = cytotoxicity” value is inactive: -1.36%.
For `CC1CCc2nc3ncn(Cc4ccc(Cl)cc4)c(=O)c3cc2C1` (stereo unspecified) the value was inactive: 1.11%; for `Cc1nnc(NCc2ccc(Cl)cc2)c2c1nnn2Cc1ccc(F)cc1`, inactive: -0.503%; for `Cc1ccc2nc(-c3ccc(Cl)c(NC(=O)c4ccc5c(c4)OCCO5)c3)oc2c1`, inactive: 3.38%.
In the case of `CCOc1ccccc1NC(=O)CSc1ccc2nnc(CCNS(=O)(=O)c3ccccc3)n2n1`, the “activity change, negative = cytotoxicity” value was inactive: -0.653%.
For `Brc1ccc(-c2noc(-c3ccccc3)n2)o1` the value was inactive: 3.36%; for `COCCNC(=O)CCCn1c(=O)[nH]c2ccsc2c1=O`, inactive: 10.4%.
Consider `Cc1ccc(Nc2ncnc3c2cnn3-c2ccc(C)cc2)cc1`, for which the “activity change, negative = cytotoxicity” value was inactive: 0.598%.
Then `CC(=O)Nc1ccc(NS(=O)(=O)c2cc(Br)cc3c2N(C(=O)C2CC2)CC3)cc1`, with inactive: 3.86%.
For `COc1ccc(OCC(=O)N(Cc2cccc(OC)c2)C2CCS(=O)(=O)C2)cc1` (stereo unspecified) the value was inactive: 0.429%; for `CCOc1ccc(NS(=O)(=O)c2ccc3[nH]cc(C(=O)NCCOC)c(=O)c3c2)cc1`, inactive: 9.74%.
For the compound `CN(C)CCNC(=O)CCCn1c(=O)c2cccn2c2ccccc21`, the “activity change, negative = cytotoxicity” value was inactive: 14%.
For the compound `Cc1ccc(Cl)cc1N(C)C(=O)c1noc2c1CCCCC2`, the “activity change, negative = cytotoxicity” value was inactive: 1.93%.
For `COc1ccccc1NC(=O)C1=C(C)Nc2nc(SCC(=O)c3ccc(C)cc3)nn2C1c1ccccc1C` (stereo unspecified) the value was inactive: -4.36%; for `CSCCC(NS(=O)(=O)c1ccc2c(c1)oc(=O)n2C)C(=O)NCc1ccc(F)cc1` (stereo unspecified), inactive: 14.2%.
On to `COc1ccc(-n2cc(C(=O)N(C)c3cc(C)ccc3OC)c3ccccc3c2=O)cc1`, for which the “activity change, negative = cytotoxicity” value was inactive: 0.178%.
For `Cc1nn(Cc2noc(C(=O)NCc3cccc(F)c3)n2)c(C)c1Br` the value was inactive: 3.47%.
Consider `CCN1C(=O)C2(c3ccccc31)c1c(oc3ccc(C)cc3c1=O)C(=O)N2CCCOC(C)C` (stereo unspecified), for which the “activity change, negative = cytotoxicity” value was inactive: 8.41%.
For `Cc1cc2ccccc2n1CCNC(=O)c1ccc(F)cc1` the value was inactive: 14%; for `Cc1cc(O)c(C(c2ccc(Cl)cc2)N2CCN(c3ccccc3)CC2)c(=O)n1Cc1ccco1` (stereo unspecified), inactive: 1.5%; for `CC1=C(c2ccc(C)cc2)S(=O)(=O)N(Cc2ccc(C(=O)Nc3ccccc3C)cc2)C1=O`, inactive: 0.502%.
For `COc1ccc(CCn2c(=O)[nH]c3cc(C(=O)N4CCN(c5ccccc5)CC4)ccc3c2=O)cc1OC`, the “activity change, negative = cytotoxicity” value is inactive: 0.232%.
On to `CCOc1ccccc1NC(=O)n1ncc2cc(Cl)ccc21`, for which the “activity change, negative = cytotoxicity” value is inactive: -11.1%.
Turning to `COCCNC(=O)CCCN1C(=O)CCn2nc(-c3cccn3C)cc21`, the “activity change, negative = cytotoxicity” value was inactive: -0.503%.
`Cc1ccc(CCNC(=O)c2ccc(CS(=O)(=O)c3ccc(Cl)cc3)o2)cc1`: the “activity change, negative = cytotoxicity” value was inactive: -8.65%.
As for `O=C(c1ccccc1F)N1CCC(c2nc3c(nnn3Cc3cccc(F)c3)c(=O)[nH]2)CC1`, the “activity change, negative = cytotoxicity” value was inactive: 0.299%.
Consider `Cc1oc(-c2ccc(C(=O)NC(C)c3ccccc3)cc2)nc1CS(=O)(=O)c1ccccc1` (stereo unspecified), for which the “activity change, negative = cytotoxicity” value is inactive: -8.04%.
For `COC(=O)c1ccccc1NC(=O)CCCN1C(=O)C(c2ccccc2)Oc2cccnc21` (stereo unspecified) the value was inactive: 18.1%; for `COc1ccc(NC(=O)Cn2c(=O)oc3cc(S(=O)(=O)N4CCCCC4C)ccc32)cc1` (stereo unspecified), inactive: -18.1%.
Turning to `CCCOc1ccc(C(=O)Nc2ccc3nn(-c4ccc(OC)c(Cl)c4)nc3c2)cc1`, the “activity change, negative = cytotoxicity” value was inactive: -3.74%.
As for `COc1cccc2c1Oc1nc(-c3ccccc3)nc(SCC(=O)Nc3ccccc3)c1C2`, the “activity change, negative = cytotoxicity” value is inactive: 8.37%.
Then `CCOc1ccc(-c2nnc(SCC(=O)Nc3cc(F)ccc3F)o2)cc1`, with inactive: -14.4%; and `COc1ccc(CCNC(=O)c2ccc3nc(Cc4ccccc4)oc3c2)cc1OC`, with inactive: -1.99%; and `Nc1nonc1-c1nc2ccccc2n1Cc1c(Cl)cccc1Cl`, with inactive: 25.7%.
For `COc1ccc(N(CC(=O)NCCc2ccccc2)S(=O)(=O)c2ccc(OC)c(OC)c2)cc1` the value was inactive: -5.05%.
Then `O=C(C1CCCN(S(=O)(=O)c2cccc3nonc23)C1)N1CCN(c2ccccc2Cl)CC1` (stereo unspecified), with inactive: -13.1%; and `COc1ccc(NC(=O)c2cnn(-c3ccc(F)cc3F)c2C2CCN(C(=O)OC(C)(C)C)CC2)cc1Cl`, with inactive: -21.2%; and `COc1ccc(CNC(=O)c2ccc(NC(=O)N3CCSc4ncccc43)cc2)cc1OC`, with inactive: -0.367%.
Turning to `CCOC(=O)c1c(NC(=O)CCCOc2ccc(Cl)cc2)sc2c1CCC2`, the “activity change, negative = cytotoxicity” value is inactive: -13.5%.
For `COc1ccc(OC)c(-c2noc(N3CCN(c4ccc(C(C)=O)cc4)CC3)n2)c1`, the “activity change, negative = cytotoxicity” value is inactive: -11.1%.
On to `COc1ccc(-c2oc3ncn4nc(COc5ccc(C)cc5)nc4c3c2-c2ccc(OC)cc2)cc1`, for which the “activity change, negative = cytotoxicity” value is inactive: 5.98%.
Then `CCOC(=O)Cn1c(=O)oc2cc(S(=O)(=O)N3CCN(c4ccccc4OC)CC3)ccc21`, with inactive: 3.56%; and `O=C(NCCc1csc2nc(-c3ccccc3F)nn12)c1ccccc1C(F)(F)F`, with inactive: -3.08%; and `COc1cccc(CN(C(=O)c2ccc(C(C)(C)C)cc2)C2CCS(=O)(=O)C2)c1` (stereo unspecified), with inactive: -2.07%.
As for `CCOC(=O)c1cc(-c2ccc(OC)c(S(=O)(=O)NCc3ccccc3Cl)c2)on1`, the “activity change, negative = cytotoxicity” value is inactive: 2.04%.
Then `CC1CCCCN1CCCNC(=O)CN1C(=O)CSc2ccc(S(=O)(=O)N3CCOCC3)cc21` (stereo unspecified), with inactive: 23.9%.
As for `CCc1ccc(NC(=O)Nc2ccccc2OCc2cc(=O)n3ccccc3n2)cc1`, the “activity change, negative = cytotoxicity” value is inactive: 0.166%.
For `COc1ccc(OC)c(NC(=O)Cn2ccn(-c3ccc(OC)c(OC)c3)c(=O)c2=O)c1` the value was inactive: 2.44%.
Regarding `CCCNC(=O)CSc1c(CCC)cnc2c1c(=O)n(C)c(=O)n2C`, the “activity change, negative = cytotoxicity” value was inactive: 11.8%.
For `CCCCNc1ccc(-c2nc(-c3ccccn3)no2)cc1[N+](=O)[O-]` the value was inactive: 0.377%; for `COc1ccc(-c2nnn3c2nc(NCc2ccc(C)cc2)c2ccccc23)cc1`, inactive: 9.4%.
Consider `Cc1cc(C)c(NC(=O)C(C)n2c(=O)cc(-c3ccccc3)c3c(C)nn(C)c32)c(C)c1` (stereo unspecified), for which the “activity change, negative = cytotoxicity” value is inactive: 4.72%.
